Common to all, as to test: Primary Screen for Target Class Profiling of Small Molecule Inhibitors of Methyltransferases
Assay [1] deals with Glycine N-methyltransferase (Homo sapiens) (UniProt Q14749). As to conditions: purified enzyme, MTase-Glo SAH luminescence; measured here: GNMT inhibition; at 40 µM; stronger effect = lower value. The method, boiled down: (§1)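 Each enzyme was reacted with SAM and its substrate, with compounds tested once at 40 uM; SAH formed was read by MTase-Glo luminescence.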
In assay [2] the target is Guanidinoacetate N-methyltransferase (Homo sapiens) (UniProt Q14353). As to conditions: purified enzyme, MTase-Glo SAH luminescence; measured here: GAMT inhibition; at 40 µM; stronger effect = lower value. The gist of the method: as §1
Assay [3] deals with Histamine N-methyltransferase (Homo sapiens) (UniProt P50135). To be noted: purified enzyme, MTase-Glo SAH luminescence; measured here: HNMT inhibition; at 40 µM; stronger effect = lower value. The method, boiled down: as §1
The target in assay [4] is Nicotinamide N-methyltransferase (Homo sapiens) (UniProt P40261). To be noted: purified enzyme, MTase-Glo SAH luminescence; measured here: NNMT inhibition; at 40 µM; stronger effect = lower value. The method, boiled down: as §1
For assay [5], the target named is Phenylethanolamine N-methyltransferase (Homo sapiens) (UniProt P11086). To be noted: purified enzyme, MTase-Glo SAH luminescence; measured here: PNMT inhibition; at 40 µM; stronger effect = lower value. The method, boiled down:
as §1

Molecules are shown by their SMILES. Values joined by “and” are separate entries in the source; they are usually repeats but may differ in a detail not shown here. Equal values may be shown once. The list shows a part of the results. The main result of the screen is listed elsewhere. These columns were measured beside it and carry no call.
On the % scale 0 is the no-effect control and ±100 the full control effect.

`OC[C@H]1O[C@@H](Oc2cc(O)cc(-c3cc4ccc(O[C@@H]5O[C@H](CO)[C@@H](O)[C@H](O)[C@H]5O)cc4o3)c2)[C@H](O)[C@@H](O)[C@@H]1O`: the activity change, negative = inhibition was 1.18% in assay [1]; 7.55% in assay [2]; 10.9% in assay [3]; -4.27% in assay [4]; 8.18% in assay [5].

Take `CCc1cc2c(cc3n2CC(C)(C(=O)NC2CCC(C)CC2)N(Cc2cccc(F)c2)C3=O)s1` (stereo not given): the activity change, negative = inhibition in assay [1] is 5.81%; in assay [2] it was 0%; in assay [3] it was 7.21%; in assay [4], 4.16%; in assay [5] it was -0.012%.

`CC1CCC2C(C(=O)O)=CC3C(O)C(C)(C)CC123` (stereo not given): the activity change, negative = inhibition is 2.9% in assay [1]; 5.48% in assay [2]; 8.87% in assay [3]; -7.64% in assay [4]; 0.018% in assay [5].

As to `Cc1cccc(C)c1-c1nc(C(=O)N2CCN(c3ncccn3)CC2)n2ccccc12`, the activity change, negative = inhibition in assay [1] was -5.15%; in assay [2] it was -3.23%; in assay [3], -9.78%; in assay [4], -26%; in assay [5], -0.816%.

Turning to `C/C=C/C=C/C(O)=C1/C(=O)[C@]2(C)C(=O)[C@@](C)(O)[C@H]1[C@H]([C@@]1(C)OC(=O)C(C)=C1O)[C@H]2C(=O)CC/C=C/C`, the activity change, negative = inhibition in assay [1] is -3.59%; in assay [2], 1.3%; in assay [3], 7.98%; in assay [4] it was -11.1%; in assay [5] it was -6.05%.

With `NC(=O)NCC(=O)N1CC[C@@H]2[C@@H](CCC(=O)N2CCc2ccccn2)C1`, the activity change, negative = inhibition in assay [1] is -1.45%; in assay [2], -0.562%; in assay [3], 1.14%; in assay [4], -0.474%; in assay [5], 1.33%.

Take `CCN1C(=O)c2cc(C(=O)Nc3cccc(Cl)c3C)nn2CC1(C)C(=O)NC1CCCC1` (stereo not given): the activity change, negative = inhibition in assay [1] was -3.98%; in assay [2] it was -3.43%; in assay [3], -12.3%; in assay [4] it was -1.03%; in assay [5] it was -5.45%.

On to `CN(C)[C@@H]1CN(C(=O)c2ccc(C#N)cc2)C[C@H]1CO`, for which the activity change, negative = inhibition is -4.88% in assay [1]; -1.96% in assay [2]; 0.087% in assay [3]; -1.14% in assay [4]; 0.327% in assay [5].

Regarding `CC1COC2(OC3CC4C5CC(O[C@@H]6O[C@H](C)[C@@H](O[C@@H]7O[C@@H](C)[C@H](O)[C@@H](O)[C@H]7O)[C@H](O)[C@H]6O)C6CC(O)CCC6(C)C5CCC4(C)C3C2C)C(O)C1` (stereo not given in full), the activity change, negative = inhibition in assay [1] was 2.99%; in assay [2], -0.391%; in assay [3], 6.45%; in assay [4] it was -10%; in assay [5] it was -3.53%.

For `Cc1n[nH]c(C)c1CCC(=O)Nc1cccn2nc(C3CCC3)nc12`, the activity change, negative = inhibition is -5.11% in assay [1]; -5.12% in assay [2]; -3.57% in assay [3]; -4.35% in assay [4]; -6.52% in assay [5].

As to `COc1ccc(CNC(=O)c2sc3nc(C)cc(C)c3c2N)cc1`, the activity change, negative = inhibition was -17.3% in assay [1]; -4.27% in assay [2]; -2.58% in assay [3]; -15.7% in assay [4]; -8.01% in assay [5].

For `CC1=C2C=C(CO)C(CO)CCC2(C)CCC1=O` (stereo not given), the activity change, negative = inhibition is 1.49% in assay [1]; 7.06% in assay [2]; 4.38% in assay [3]; -6.55% in assay [4]; 3.85% in assay [5].

For the molecule `CCc1ccc(N2C(=O)c3cc(C(C)(C)C)nn3CC2(C)C(=O)NC2CCCCC2)cc1` (stereo not given), the activity change, negative = inhibition in assay [1] was -9.02%; in assay [2], -3.22%; in assay [3], -3.84%; in assay [4] it was -9.84%; in assay [5] it was -6.73%.

Take `COc1ccc(-c2cc3onc(-c4ccncc4)c3c(=O)n2C)cc1`: the activity change, negative = inhibition in assay [1] was -16.9%; in assay [2] it was -14%; in assay [3] it was -10.8%; in assay [4], -40.3%; in assay [5], -13.1%.

`CC1c2cccn2CCN1C(=O)Nc1ccc(F)cc1` (stereo not given): the activity change, negative = inhibition in assay [1] is -1.81%; in assay [2], 0%; in assay [3] it was 6.26%; in assay [4], -3.53%; in assay [5] it was 0.834%.

For the molecule `CC(C)c1noc([C@@H]2C[C@H](NS(=O)(=O)Cc3ccccc3)CN2C)n1`, the activity change, negative = inhibition was -2.08% in assay [1]; 0.835% in assay [2]; 0.693% in assay [3]; 1.52% in assay [4]; -1.3% in assay [5].

For `Cc1ccccc1Cn1nc2n(Cc3ccccc3)c(=O)c3ccc(C(=O)NCC(C)C)cc3n2c1=O`, the activity change, negative = inhibition amounted to 3.67% in assay [1]; 0% in assay [2]; 9.05% in assay [3]; 1.33% in assay [4]; 4.86% in assay [5].

Regarding `Cc1ccc(S(=O)(=O)c2nnn3c2nc(NCCCN2CCCC2=O)c2cc(Cl)ccc23)cc1C`, the activity change, negative = inhibition in assay [1] is -19%; in assay [2] it was 0.934%; in assay [3], -5.53%; in assay [4], -6.34%; in assay [5], -6.28%.

In the case of `Cc1ccc(C(=O)N2CCc3nc(-c4cn[nH]c4)[nH]c3C2)cc1N1CCNC1=O`, the activity change, negative = inhibition in assay [1] was -6.32%; in assay [2], -7.88%; in assay [3], -3.59%; in assay [4], -12.5%; in assay [5], -8.34%.

Turning to `O=C(CN1C(=O)COc2ccc(C(=O)COc3ccccc3F)cc21)Nc1ccc(F)cc1`, the activity change, negative = inhibition in assay [1] was -6.5%; in assay [2], -3.73%; in assay [3], -0.54%; in assay [4], -9.03%; in assay [5], 3.56%.

Turning to `CC(=O)Nc1c2n(c3ccccc13)CC(C)(C(=O)NC1CCCCC1)N(Cc1ccccc1C)C2=O` (stereo not given), the activity change, negative = inhibition in assay [1] was 2.83%; in assay [2], 0%; in assay [3] it was 5.24%; in assay [4], 7.79%; in assay [5], 3.1%.

With `O=c1c2ccccc2n2c(SCc3cccc(F)c3)nnc2n1Cc1ccccc1`, the activity change, negative = inhibition in assay [1] is -0.084%; in assay [2], -1.14%; in assay [3] it was -2.63%; in assay [4] it was -9.33%; in assay [5], -5.57%.

For the molecule `CC1(C(=O)NC2CCCCCCC2)Cn2c(cc3occc32)C(=O)N1c1cccc(Cl)c1` (stereo not given), the activity change, negative = inhibition in assay [1] was -1.99%; in assay [2] it was -7.88%; in assay [3] it was 1.75%; in assay [4], -1.74%; in assay [5], -1.82%.

Regarding `Cc1noc(C)c1-c1cc2c(c(-c3ccccc3Oc3ccccc3)c1)C(=O)N(C)C2`, the activity change, negative = inhibition in assay [1] is -19.6%; in assay [2] it was -11.3%; in assay [3] it was -24.7%; in assay [4], -25.4%; in assay [5], -8.79%.

In the case of `CCCn1c(=O)c2ccc(C(=O)NCC(C)C)cc2n2c(SCC(=O)Nc3ccc(CC)cc3)nnc12`, the activity change, negative = inhibition in assay [1] is 5.1%; in assay [2], 4.54%; in assay [3], 5.85%; in assay [4], -11.2%; in assay [5] it was -0.594%.

For `CCOC(=O)C[C@@H]1C[C@@H](C(C)C)[C@H](CNS(=O)(=O)c2ccccc2)C=C1C`, the activity change, negative = inhibition in assay [1] is -4.5%; in assay [2], -0.709%; in assay [3], -0.613%; in assay [4], -5.05%; in assay [5], -2.06%.

For the molecule `C[C@@H]1C[C@H]2O[C@@H]2/C=C\C=C\C(=O)Cc2c(Cl)c(O)cc(O)c2C(=O)O1`, the activity change, negative = inhibition in assay [1] is -5.03%; in assay [2], 2.29% and -2.91%; in assay [3], 2.28%; in assay [4], -8.13% and -17%; in assay [5], -0.97% and -8.81%.

`COC(=O)c1cccc(CNCC2=CC(C)(C)COc3ccc(OC)cc32)c1`: the activity change, negative = inhibition is -3.59% in assay [1]; 2.5% in assay [2]; -7.26% in assay [3]; -16.4% in assay [4]; -2.34% in assay [5].

`Cc1cccc(-c2nnn3c2nc(NCCc2ccc(S(N)(=O)=O)cc2)c2cc(Cl)ccc23)c1`: the activity change, negative = inhibition was -6.01% in assay [1]; 0.105% in assay [2]; -5.99% in assay [3]; -15.4% in assay [4]; -8.39% in assay [5].

On to `O=C(Cn1c(=O)oc2cc(S(=O)(=O)NC3CCCC3)ccc21)NCc1ccccc1Cl`, for which the activity change, negative = inhibition in assay [1] is -0.564%; in assay [2] it was 1.39%; in assay [3], 5.23%; in assay [4], 6.05%; in assay [5], -3.87%.

On to `Cc1ccccc1NC(=O)Cn1nc2n(CC(C)C)c(=O)c3ccc(C(=O)NC4CCCC4)cc3n2c1=O`, for which the activity change, negative = inhibition stood at 7.37% in assay [1]; 2.19% in assay [2]; 12.5% in assay [3]; 6.58% in assay [4]; 7.67% in assay [5].

On to `O=C(c1ccccc1)N1CCCC(C(=O)N2CCC(c3nc4ccncc4[nH]3)C2)C1` (stereo not given), for which the activity change, negative = inhibition in assay [1] is -6.99%; in assay [2], -5.91%; in assay [3], -6.71%; in assay [4] it was -15%; in assay [5], 1.89%.

Take `Cc1cc2sc(NC(=O)Cc3ccccc3)nc2cc1Cl`: the activity change, negative = inhibition is -9.87% in assay [1]; -5.39% in assay [2]; 8.66% in assay [3]; -16.7% in assay [4]; -0.842% in assay [5].

Regarding `CN1CCN([C@H]2CCN(Cc3ccc4occc4c3)C[C@H]2CCC(=O)O)CC1`, the activity change, negative = inhibition was -1.16% in assay [1]; -0.75% in assay [2]; 0.112% in assay [3]; 1.93% in assay [4]; -3.62% in assay [5].

Turning to `Cc1ccc(NC(=O)N[C@H]2C[C@@](O)(C(=O)N[C@H]3CCCNC3=O)C[C@@H](O)[C@@H]2O)cc1`, the activity change, negative = inhibition in assay [1] was -3.25%; in assay [2], -7.1%; in assay [3] it was -2.71%; in assay [4] it was -10.6%; in assay [5], -9.59%.

Regarding `CCc1cc2c(cc3n2CC(C(=O)NC2CCCCCC2)(c2ccccc2)N(Cc2cccc(F)c2)C3=O)s1` (stereo not given), the activity change, negative = inhibition was -1.33% in assay [1]; 0.129% in assay [2]; 3.15% in assay [3]; -3.98% in assay [4]; -5.31% in assay [5].

These data come from PubChem BioAssay AID1745853 (National Center for Advancing Translational Sciences (NCATS), 2022).
